# Laboratory results published in paper PMC12040169 (PLOS Biology, 2025).
# The list shows a part of the results.
# Test system: T1, C. trachomatis L2/434/Bu expressing GFP (CTL2-GFP)
# T1 construct: L2/434/Bu GFP intracellular growth in HeLa cells
# Set-up: species or system HeLa; C. trachomatis total inclusion area by high-content imaging, normalised to DMSO
# Conditions: total inclusion area; 28.5 h, 10 µM; inhibitor
# Method in brief: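 Host cell viability was gauged from Hoechst-stained nuclei counts, while chlamydial growth was taken from total inclusion area and inclusion number per well. Cells were fixed and imaged by high-content microscopy once bulk GFP and resorufin fluorescence had been measured.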
row,SMILES,% of control remaining
1,Cc1nnc([C@H]2CCN(Cc3ccccc3)C2)o1 [CBK289390],115.233
2,O=C(O)/C(=N\O)c1ccc(CCc2ccccc2)s1 [CBK261213],97.3654
3,O=C(NCc1ccc(N2CCCC2=O)cc1)c1cc(Br)ccc1O [CBK296614],68.1229
4,O=C(CCCc1ccccc1)Nc1ccc(O)cc1C(=O)O [CBK131699],109.63
5,CCCCN(Cc1ccc(C)s1)C(=O)C1CCc2nn(C)c(=O)n2C1 (stereo not drawn) [CBK307360],38.8414
6,CCn1cncc1CN(CCCn1ccnc1)CC1CC=CCC1 (stereo not drawn) [CBK283220],122.483
7,O=C(Nc1cccc(C(=O)O)c1)/C(=C\c1ccc2c(c1)OCO2)NC(=O)c1ccccc1 [CBK263697],100.458
8,c1ccc(NCc2ncnc3c2ncn3C2CCCCO2)cc1 (stereo not drawn) [CBK021593],62.763
9,CCN1C(=O)S/C(=C/c2ccc(OCc3cccc(C(=O)O)c3)cc2)C1=O [CBK265605],107.96
10,CCC1CCCCN1Cc1nc2c(c(=O)n(C)c(=O)n2C)n1CCOC (stereo not drawn) [CBK305912],84.1663
11,COc1ccc(NC(=O)Nc2ccc3nc(C)c(C)nc3c2)cc1 [CBK265120],84.7486
12,CC(=O)NCCSc1nc2ccccc2nc1N1CCCC1 [CBK103696],73.4165
13,O=S(=O)(CC(F)(F)F)Nc1ccc(-c2nnn[nH]2)cc1 [CBK154754],98.1034
14,COc1cc(C(=O)N(Cc2ccco2)c2ccc(O)cc2)cc(OC)c1OC [CBK266315],87.9211
15,CC(C)(C)OC(=O)N1CCN(c2cncc(OC3CSCc4ccccc43)n2)CC1 (stereo not drawn) [CBK172354],76.2364
16,NS(=O)(=O)c1ccc(CCNC(=O)C2CC2)cc1 [CBK288407],54.4701
17,Cc1cc(NC(=O)CN(C)C(=O)c2cnc(Cl)c(Cl)c2)no1 [CBK306132],57.6209
18,Cc1ccc(OCC(=O)N2CCN(C(=O)c3ccncc3)CC2)cc1 [CBK300480],73.2215
19,Cc1nn(CC(=O)N2CCCCC2C)c(=O)c2cc3sccc3n12 (stereo not drawn) [CBK284141],61.0257
20,CC(C)N1CCC(C(=O)NC(=O)Nc2ccc3c(c2)OCCO3)CC1 [CBK034799],96.5812

row,SMILES,% of control remaining
1,CC(C)CNC(=S)N[C@H]1CC[C@@]2(c3cccnc3)CCN(Cc3ccccc3)[C@H]2C1 [CBK028460],64.7019
2,COc1ccccc1-c1nccnc1N[C@H](C)c1ccccc1 [CBK038083],114.22
3,COCC(=O)NC(Cc1cccs1)c1nc(C)cs1 (stereo not drawn) [CBK285004],103.348
4,O=C(CSc1nnc(-c2ccncc2)n1-c1ccccc1)N/N=C/c1c[nH]c2ccc(Br)cc12 [CBK262816],125.984
5,CC(=O)NCC(=O)N1CCCC2(C/C=C/COc3ccccc3C(=O)NCCNC2=O)C1 (stereo not drawn) [CBK291991],126.466
6,CC(C)(O)C1CCCN(C(=O)c2cc(COc3cccc(F)c3)[nH]n2)C1 (stereo not drawn) [CBK306653],34.6908
7,Cc1noc(C)c1S(=O)(=O)n1c(=O)n(Cc2ccc(S(C)(=O)=O)cc2)c2ccccc21 [CBK106536],78.4348
8,COc1ccc(C2(C(=O)NCCN3CCCC3)CC2)cc1 [CBK149824],90.0148
9,Cc1nnc(C(C)Sc2nnc(N3CCC(C)CC3)n2Cc2ccco2)o1 (stereo not drawn) [CBK298311],74.1723
10,CC(=O)NC[C@H]1CN(c2ccc3c(c2)CCN(C(=O)Cc2ccccc2)CC3)C(=O)O1 [CBK018499],0
11,CCOC(=O)C1=C(Nc2ccc([N+](=O)[O-])cc2)S/C(=C\c2ccc(O)c(OC)c2)C1=O [CBK263873],100.562
12,CC(=O)N1CCCC1C(=O)N1CC(C(=O)Nc2nc3c(C)cc(C)cc3s2)C1 (stereo not drawn) [CBK286039],117.822
13,CCCC/C=C/c1cncc(N2CCN(C(=O)c3ccco3)CC2)n1 [CBK037918],134.323
14,Nc1ccc(Cc2ccc(N)c(O)c2)cc1O [CBK261149],99.6761
15,N#C/C(=C/c1ccc(-c2cc(C(=O)O)cc(C(=O)O)c2)o1)c1nc2ccccc2s1 [CBK266754],73.4121
16,COc1ccccc1-c1cc(Nc2ccc(NS(=O)(=O)c3ccc(C)cc3)cc2)ncn1 [CBK037819],71.9626
17,CCOC(=O)c1cccc(-n2ncc(-c3ccc(F)cc3)n2)c1 [CBK112908],85.6977
18,O=C(c1nn2c(C(F)(F)F)cc(-c3ccccc3)nc2c1Br)N1CCCCC1 [CBK051497],88.8136
19,O=C(O)CNC(=O)/C(=C/c1ccc(Br)cc1)NC(=O)c1ccc(Br)o1 [CBK262537],103.431
